Read-outs that look alike come from different tables or passages of the source.
Experiments:
[1] = target: T1, SARS-CoV-2 main protease (Mpro) (Severe acute respiratory syndrome coronavirus 2 (2019-nCoV) (SARS-CoV-2), UniProt P0DTD1); conditions: several values in a cell are measurements on various days, lowest most representative
[2] = target: T1, SARS-CoV-2 main protease (Mpro); test: biochemical; conditions: IC50 (μM), several values in a cell are measurements on various days, lowest most representative

Structure (SMILES)	IC50 [1]	IC50 [2]
O=C(NCc1ccccn1)[C@H]1CN(C(=O)CCl)CCN1S(=O)(=O)c1ccsc1 [C]	307 nM	
CC(C)C[C@@H]1CN(C(=O)COS(=O)(=O)N2CCN(C)CC2)CCN1Cc1cccc(Cl)c1 (racemic) [Compound A4]		> 99.5 µM
CC(C)C[C@H]1CN(C(=O)CCl)CCN1Cc1cccc(Cl)c1 [A]	700 ± 83.7 nM	
CC(NC(=O)CCl)c1cc(Cl)cc(-c2ccc(S(N)(=O)=O)cc2)c1 (stereo not shown) [B]	466 nM	

From patent publication US20250304585A1, “SULFAMATE BASED COVALENT LIGAND-DIRECTED RELEASE (COLDR) COMPOUNDS” (priority 2022, published 2025)
